Publication PMC6556554

How the values were obtained:
[1] = molecular target: Apolipoprotein E4 (human) (UniProt P02649); assay: SEC + SEC-MALS; gel filtration on HiLoad Superdex 26/600 200 pg in 20 mM Hepes, 300 mM NaCl, 10% glycerol pH 8.0; SEC-MALS at 5 mg/mL in 20 mM Hepes, 300 mM NaCl, 1 mM TCEP pH 8.0, RT, Shodex Kw-403 column; oligomer in solution
[2] = molecular target: Apolipoprotein E4 (human) (UniProt P02649); assay: SAXS; in-line SEC-SAXS, 10 mg/mL, 20 °C, 20 mM Hepes, 300 mM NaCl pH 8.0, Shodex Kw-403 column

stoichiometry N [1]: 4 | stoichiometry N [2]: 4
Substance: Apolipoprotein E4 (a stretch of the chain, sequence not shown) (natural protein; other documents disagree on this pair)
